Results are given in words; binding and its absence hold for the method and conditions named. In cells and extracts the contact can be indirect. Some binding calls cover weakened binding; strength is not graded here. For some assays here: Sequences can lack the tags named with a protein.

Among the data in publication PMC3584131 are binding values, retold here.

The target of test [1] is T1, endogenous Numb (HEK-293A cells) (human (endogenous in HEK-293A)) (UniProt P49757).
T1 sequence: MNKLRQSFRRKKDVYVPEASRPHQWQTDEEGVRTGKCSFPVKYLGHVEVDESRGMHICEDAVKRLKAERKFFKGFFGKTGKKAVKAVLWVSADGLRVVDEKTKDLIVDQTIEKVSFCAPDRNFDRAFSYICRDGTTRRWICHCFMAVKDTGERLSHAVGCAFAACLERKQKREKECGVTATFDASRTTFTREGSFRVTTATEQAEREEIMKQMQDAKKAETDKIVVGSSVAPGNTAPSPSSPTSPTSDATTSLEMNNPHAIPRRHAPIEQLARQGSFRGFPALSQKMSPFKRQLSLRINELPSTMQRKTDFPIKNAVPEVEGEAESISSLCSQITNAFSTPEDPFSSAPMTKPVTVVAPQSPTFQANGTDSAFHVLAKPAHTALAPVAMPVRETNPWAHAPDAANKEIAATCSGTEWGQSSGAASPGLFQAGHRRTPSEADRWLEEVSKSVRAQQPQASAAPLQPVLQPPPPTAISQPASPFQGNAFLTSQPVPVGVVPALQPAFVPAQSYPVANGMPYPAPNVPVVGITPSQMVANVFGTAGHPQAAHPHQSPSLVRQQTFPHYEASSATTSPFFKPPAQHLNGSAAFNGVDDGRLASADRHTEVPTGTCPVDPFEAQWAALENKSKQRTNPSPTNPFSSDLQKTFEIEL
Briefly: co-IP; cytoplasmic lysates of transfected HEK-293A cells; immunoprecipitation with anti-Flag antibody, anti-Numb agarose or anti-myc agarose; washes in Buffer W (300 mM NaCl, 0.5% triton X-100); immunoblot. In general terms: Immunoblotting shows a protein as a band on a membrane.

For test [2], the target named is T2, endogenous Numb (HeLa cells) (human (endogenous in HeLa)) (UniProt P49757).
T2 sequence: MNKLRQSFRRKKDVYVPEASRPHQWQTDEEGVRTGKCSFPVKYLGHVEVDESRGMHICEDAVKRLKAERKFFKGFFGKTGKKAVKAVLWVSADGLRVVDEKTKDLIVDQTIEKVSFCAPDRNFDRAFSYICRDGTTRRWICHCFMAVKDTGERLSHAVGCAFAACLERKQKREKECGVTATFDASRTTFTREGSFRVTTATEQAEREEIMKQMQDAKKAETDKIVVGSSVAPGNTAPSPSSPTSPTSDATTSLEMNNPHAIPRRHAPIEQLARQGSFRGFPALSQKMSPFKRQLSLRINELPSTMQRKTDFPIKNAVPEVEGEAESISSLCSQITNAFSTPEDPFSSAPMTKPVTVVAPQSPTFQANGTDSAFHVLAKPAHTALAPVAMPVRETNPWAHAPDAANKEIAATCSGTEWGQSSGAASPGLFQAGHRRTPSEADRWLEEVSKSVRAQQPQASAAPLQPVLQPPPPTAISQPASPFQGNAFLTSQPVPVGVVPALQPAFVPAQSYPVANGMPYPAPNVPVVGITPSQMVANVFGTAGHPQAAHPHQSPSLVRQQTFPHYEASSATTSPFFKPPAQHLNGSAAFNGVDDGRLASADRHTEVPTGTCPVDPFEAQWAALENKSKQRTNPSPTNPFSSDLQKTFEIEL
Put plainly: co-IP; endogenous, untagged proteins in lysates of PIL-4 hepatoblasts or HeLa cells; reciprocal immunoprecipitation with TBC1D15 antibody or anti-Numb agarose; immunoblot.

Test [3] deals with endogenous Numb (CD133+/CD49f+ murine liver TISCs) (mouse (endogenous in murine TISCs)) (UniProt Q9QZS3). Put plainly: co-IP; cytoplasmic lysates of transfected murine TISCs; immunoprecipitation with anti-Numb agarose or anti-myc antibody, 4°C; five washes in Buffer W (300 mM NaCl, 0.5% triton X-100); immunoblot.
Another test has as its target Flag-p53 (human) (UniProt P04637). Put plainly: co-IP; cytoplasmic lysates of transfected HEK-293A cells; immunoprecipitation with anti-Flag antibody, anti-Numb agarose or anti-myc agarose; washes in Buffer W (300 mM NaCl, 0.5% triton X-100); immunoblot.
Test [4] addresses endogenous Numb (PIL-4 hepatoblasts) (UniProt Q9QZS3). Put plainly: co-IP; endogenous, untagged proteins in lysates of PIL-4 hepatoblasts or HeLa cells; reciprocal immunoprecipitation with TBC1D15 antibody or anti-Numb agarose; immunoblot.

B1: GFP-TBC-N1 (domain or fragment, UniProt Q9CXF4 2-158)
chain: AAAGVVSGKIIYEQEGVYIHSSCGKANDQDSLISGILRVLEKDAEVIVDWRPLDDALDSSSILCAGKDSSSVVEWTQAPKERAHRGSDQQSSYEAEWDMVTTVSFKKKPHTNGDAPGHRNGKSKWSFLFSLADLKSVKQSKEGMGWSYLVFCLKDDV
Turning to B1, the binding result in test [1] was “binds”.

B2: endogenous TBC1D15 (HeLa cells) (protein, UniProt Q8TC07 1-691)
chain: MAAAGVVSGKIIYEQEGVYIHSSCGKTNDQDGLISGILRVLEKDAEVIVDWRPLDDALDSSSILYARKDSSSVVEWTQAPKERGHRGSEHLNSYEAEWDMVNTVSFKRKPHTNGDAPSHRNGKSKWSFLFSLTDLKSIKQNKEGMGWSYLVFCLKDDVVLPALHFHQGDSKLLIESLEKYVVLCESPQDKRTLLVNCQNKSLSQSFENLLDEPAYGLIQAGLLDRRKLLWAIHHWKKIKKDPYTATMIGFSKVTNYIFDSLRGSDPSTHQRPPSEMADFLSDAIPGLKINQQEEPGFEVITRIDLGERPVVQRREPVSLEEWTKNIDSEGRILNVDNMKQMIFRGGLSHALRKQAWKFLLGYFPWDSTKEERTQLQKQKTDEYFRMKLQWKSISQEQEKRNSRLRDYRSLIEKDVNRTDRTNKFYEGQDNPGLILLHDILMTYCMYDFDLGYVQGMSDLLSPLLYVMENEVDAFWCFASYMDQMHQNFEEQMQGMKTQLIQLSTLLRLLDSGFCSYLESQDSGYLYFCFRWLLIRFKREFSFLDILRLWEVMWTELPCTNFHLLLCCAILESEKQQIMEKHYGFNEILKHINELSMKIDVEDILCKAEAISLQMVKCKELPQAVCEILGLQGSEVTTPDSDVGEDENVVMTPCPTSAFQSNALPTLSASGARNDSPTQIPVSSDVCRLTPA
Consider B2, for which, in test [2], the binding result was “binds”.

B3: myc-TBC1D15 (expressed in TISCs) (protein, UniProt Q9CXF4 1-671)
chain: MAAAGVVSGKIIYEQEGVYIHSSCGKANDQDSLISGILRVLEKDAEVIVDWRPLDDALDSSSILCAGKDSSSVVEWTQAPKERAHRGSDQQSSYEAEWDMVTTVSFKKKPHTNGDAPGHRNGKSKWSFLFSLADLKSVKQSKEGMGWSYLVFCLKDDVMLPALHFHQGDSKLLIESLEKYVVLCESPQDSRTLLVNCQNKSLSQSFENLLDEPAYGLIQKIKKDPYTATMVGFSKVTNYIFDSLRGSDPSTHQRPPSEMADFLSDAIPGLKINQQEEPGFEVITRIDLGERPVVQRREPVSLEEWNKSLDPEGRLVAVESMKQKIFRGGLSHSLRKQAWKFLLGYFPWDSTKEERTQLQKQKTDEYFRMKLQWKSVSEAQEKRNSRLRDYRSLIEKDVNRTDRTNKFYEGQDNPGLILLHDILMTYCMYDFDLGYVQGMSDLLSPLLYVMENEVDAFWCFASYMDQMHQNFEEQMQGMKTQLIQLSTLLRLLDSGFCSYLESQDSGYLYFCFRWLLIRFKREFSFLDILRLWEVMWTELPCKNFHLLLCCAILESEKQQIMAKHYGFNEILKHINELSMKIDVEDILCKAEAISLQMAQCKELPQAVCEILGLQDSEITTPDSDTDENVGSPCPVSAFPSSTLPILAASEAKDDSPTQTLASPNACRLTPA
With B3, the binding entry in test [3] is given as “binds”.

B4: myc-TBC1D15 (expressed in HEK-293A cells) (protein, UniProt Q9CXF4 1-671)
chain: MAAAGVVSGKIIYEQEGVYIHSSCGKANDQDSLISGILRVLEKDAEVIVDWRPLDDALDSSSILCAGKDSSSVVEWTQAPKERAHRGSDQQSSYEAEWDMVTTVSFKKKPHTNGDAPGHRNGKSKWSFLFSLADLKSVKQSKEGMGWSYLVFCLKDDVMLPALHFHQGDSKLLIESLEKYVVLCESPQDSRTLLVNCQNKSLSQSFENLLDEPAYGLIQKIKKDPYTATMVGFSKVTNYIFDSLRGSDPSTHQRPPSEMADFLSDAIPGLKINQQEEPGFEVITRIDLGERPVVQRREPVSLEEWNKSLDPEGRLVAVESMKQKIFRGGLSHSLRKQAWKFLLGYFPWDSTKEERTQLQKQKTDEYFRMKLQWKSVSEAQEKRNSRLRDYRSLIEKDVNRTDRTNKFYEGQDNPGLILLHDILMTYCMYDFDLGYVQGMSDLLSPLLYVMENEVDAFWCFASYMDQMHQNFEEQMQGMKTQLIQLSTLLRLLDSGFCSYLESQDSGYLYFCFRWLLIRFKREFSFLDILRLWEVMWTELPCKNFHLLLCCAILESEKQQIMAKHYGFNEILKHINELSMKIDVEDILCKAEAISLQMAQCKELPQAVCEILGLQDSEITTPDSDTDENVGSPCPVSAFPSSTLPILAASEAKDDSPTQTLASPNACRLTPA
Turning to B4, the binding result with Flag-p53 (human) was “no binding”.

B5: endogenous TBC1D15 (PIL-4 hepatoblasts) (protein, UniProt Q9CXF4 1-671)
chain: MAAAGVVSGKIIYEQEGVYIHSSCGKANDQDSLISGILRVLEKDAEVIVDWRPLDDALDSSSILCAGKDSSSVVEWTQAPKERAHRGSDQQSSYEAEWDMVTTVSFKKKPHTNGDAPGHRNGKSKWSFLFSLADLKSVKQSKEGMGWSYLVFCLKDDVMLPALHFHQGDSKLLIESLEKYVVLCESPQDSRTLLVNCQNKSLSQSFENLLDEPAYGLIQKIKKDPYTATMVGFSKVTNYIFDSLRGSDPSTHQRPPSEMADFLSDAIPGLKINQQEEPGFEVITRIDLGERPVVQRREPVSLEEWNKSLDPEGRLVAVESMKQKIFRGGLSHSLRKQAWKFLLGYFPWDSTKEERTQLQKQKTDEYFRMKLQWKSVSEAQEKRNSRLRDYRSLIEKDVNRTDRTNKFYEGQDNPGLILLHDILMTYCMYDFDLGYVQGMSDLLSPLLYVMENEVDAFWCFASYMDQMHQNFEEQMQGMKTQLIQLSTLLRLLDSGFCSYLESQDSGYLYFCFRWLLIRFKREFSFLDILRLWEVMWTELPCKNFHLLLCCAILESEKQQIMAKHYGFNEILKHINELSMKIDVEDILCKAEAISLQMAQCKELPQAVCEILGLQDSEITTPDSDTDENVGSPCPVSAFPSSTLPILAASEAKDDSPTQTLASPNACRLTPA
With B5, in test [4], the binding entry is on record as “binds”.
